Results published in PubChem BioAssay AID686978 (National Center for Advancing Translational Sciences (NCATS), 2013).
Out of some 420,000 compounds screened, about 64,000 (15%) were called active. Inconclusive means that the source gave no clear call. Such entries were picked first, then a sample of the others. Calls come from the whole dose curve; as a rule, active = well fitted inhibition curve with a large enough effect; inconclusive = small, poorly fitted or top-dose-only effect; inactive = flat fitted curve, though single readings scatter. No potency is given beside an inconclusive call; the fits are too rough.

assay: qHTS for Inhibitors of human tyrosyl-DNA phosphodiesterase 1 (TDP1): qHTS in cells in absence of CPT; settings: DT40 Tdp1-/- hTDP1 cells, no CPT, ATP luminescence, 48 h; activity change, negative = growth inhibition: at 46.2 µM (top of the series) unless noted; note: nearly all actives have a fitted effect of over 55% in size
Outline: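 Seeded 400 DT40-hTDP1 cells/well (vehicle DMSO, no 20 nM CPT); pinned compounds; ≥48 hr at 37 °C; CellTiter-Glo luminescence as viability measure.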
% is set by controls: 0 for no effect and ±100 for the full control effect; potency is the fitted concentration of half-maximal effect; tags give direction and shape of the fitted curve.

Question: With `COc1ccc(C(OCCN2CCC[C@@H](C(=O)O)C2)(c2ccc(OC)cc2)c2ccc(OC)cc2)cc1` as the molecule, how does the Potency read?
Answer: Its Potency is inconclusive [inhibitor, partial curve, poor fit].

Question: With `CCCNC(=O)CCc1c(C)nc2nc(-c3cc(OC)cc(OC)c3)nn2c1C` as the molecule, how does the Potency read?
Answer: The Potency was inconclusive [inhibitor, single point].

Question: Which Potency does the source give for `CCOc1ccc(NC(=S)Nc2ccccc2C2CC2)cc1` here?
Answer: The Potency was active: 4.11 µM.

Question: Which Potency does the source give for `Cc1ccc(OCc2nc3ccccc3n2Cc2ccccc2Cl)cc1` here?
Answer: The Potency was inconclusive [inhibitor, single point].

Question: With `Cc1ccc(NC(=O)[C@H](Cc2c[nH]c3ccccc23)NC(=O)[C@@H]2Cc3ccccc3CN2)c(C)c1` as the molecule, how does the Potency read?
Answer: Its Potency is inconclusive [inhibitor, single point].

Question: With `CC(C)CN(C(=O)COC(=O)COc1ccc2c(c1)CCC2)c1c(N)n(Cc2ccccc2)c(=O)[nH]c1=O` as the molecule, how does the “activity change, negative = growth inhibition” value read?
Answer: The value was inactive: 2.57%.

Question: For `Cc1cc(O)c(C(C)C)cc1NC(=O)Nc1ccc([N+](=O)[O-])cc1`, which Potency is on record?
Answer: Its Potency is inconclusive [inhibitor, single point].

Question: Which Potency does the source give for `COc1ccc(NC(=O)c2ccc(COc3ccccc3OC)o2)cc1OC` here?
Answer: The Potency was active: 23.1 µM.

Question: With `O=C(NCc1cccnc1)c1cnn(-c2ncc3c(n2)-c2ccccc2CCC3)c1C1CC1` as the molecule, how does the Potency read?
Answer: Its Potency is inconclusive [inhibitor, single point].

Question: For `O=C(Nc1ccccc1N1CCCC1)C1CCN(C(=O)c2ccc(Cl)cc2)CC1`, which Potency is on record?
Answer: Its Potency is inconclusive [inhibitor, single point].

Question: With `Cc1ccc(NC(=O)CN(C)S(=O)(=O)c2cccc3nsnc23)cc1C` as the molecule, how does the “activity change, negative = growth inhibition” value read?
Answer: The value was inactive: -27.2%.

Question: Which Potency does the source give for `Cc1cccc(CNc2ccnc(-c3cccc(C#N)c3)n2)c1` here?
Answer: Its Potency is inconclusive [inhibitor, single point].

Question: With `CCc1ccc(-c2[nH]c3c(c2-c2sc(C)c(C(=O)OC)c2O)c(=O)n(C)c(=O)n3C)cc1` as the molecule, how does the “activity change, negative = growth inhibition” value read?
Answer: The value was inactive: 1.69%.

Question: For `O=C(Cc1ccccc1)Nc1c(C(=O)Nc2ccccc2F)oc2ccccc12`, which Potency is on record?
Answer: Its Potency is inconclusive [inhibitor, full curve].

Question: Which Potency does the source give for `Cc1cccc(-n2nnnc2S(C)(=O)=O)c1` here?
Answer: Its Potency is active: 0.731 µM.

Question: Which Potency does the source give for `C(=N\Nc1nc2ccccc2[nH]1)/c1ccccc1` here?
Answer: The Potency was inconclusive [inhibitor, single point].

Question: Which “activity change, negative = growth inhibition” value does the source give for `O=C(Nc1sc2c(c1C(=O)NCCCO)CCCC2)c1ccccc1` here?
Answer: Its value is inactive: -25.3%.

Question: For `Cc1cc(=O)oc2cc(NC(=O)C(C)Oc3cccc(Cl)c3)ccc12` (stereo not given), which Potency is on record?
Answer: The Potency was inconclusive [inhibitor, partial curve].

Question: Which Potency does the source give for `O=C(NC1CCCC1)C(c1ccccc1)n1c(-c2ccc3c(c2)CCO3)nc2ccccc21` (stereo not given) here?
Answer: Its Potency is inconclusive [inhibitor, single point].

Question: Which “activity change, negative = growth inhibition” value does the source give for `COc1ccc(CCNC(=O)CSc2nc3c(c(=O)n(C)c(=O)n3C)n2C(C)C)cc1OC` here?
Answer: Its value is inactive: -9.42%.

Question: For `Cc1ccc2c(c1)N(CCCC(=O)NCCC1=CCCCC1)C(=O)CO2`, which Potency is on record?
Answer: Its Potency is inconclusive [inhibitor, single point].

Question: Which Potency does the source give for `Cc1ccc(-c2cc(Cc3ccc(N(C)C)cc3)c(=O)[nH]n2)cc1` here?
Answer: Its Potency is inconclusive [inhibitor, single point].

Question: With `CC1(C)Cc2nc3nc(SCC(=O)Nc4ccccc4)nc(N)c3cc2CO1` as the molecule, how does the “activity change, negative = growth inhibition” value read?
Answer: Its value is inactive: -29.9%.

Question: With `Nc1ccccc1N=c1ssnc1Cl` as the molecule, how does the Potency read?
Answer: Its Potency is inconclusive [inhibitor, single point].

Question: Which Potency does the source give for `CCOC(=O)/C(=N\Nc1ccccc1)S(=O)(=O)c1ccccc1` here?
Answer: The Potency was inconclusive [inhibitor, single point].

Question: Which Potency does the source give for `COc1ccc(-c2cc3nc(-c4ccccc4)cc(N4CCN(C(C)=O)CC4)n3n2)cc1` here?
Answer: The Potency was active: 2.59 µM.

Question: For `COc1ccc2cc(C3CC(c4cccs4)=NN3S(C)(=O)=O)c(Cl)nc2c1` (stereo not given), which Potency is on record?
Answer: Its Potency is inconclusive [inhibitor, single point].

Question: For `Cc1ccc(-c2noc(CCC(=O)NC3CCCc4ccccc43)n2)cc1` (stereo not given), which Potency is on record?
Answer: Its Potency is active: 2.31 µM.

Question: With `N=C(N)c1ccc2cc(OC(=O)c3ccc(N=C(N)N)cc3)ccc2c1` as the molecule, how does the Potency read?
Answer: The Potency was “inactive”.

Question: With `CCc1ccc(C(C(=O)NC2CCCC2)N(C(=O)/C=C/C(=O)Nc2cc(C)on2)c2ccccc2C)cc1` (stereo not given) as the molecule, how does the Potency read?
Answer: Its Potency is active: 16.4 µM.

Question: Which Potency does the source give for `CC1(C)CC(=O)C(N=Nc2cc3c(cc2[N+](=O)[O-])OCCO3)=C(O)C1` here?
Answer: Its Potency is inconclusive [inhibitor, single point].

Question: Which Potency does the source give for `Cc1cc(C(=O)NC2CC(C)(C)Cc3c2cnn3-c2ccc(F)cc2)nn1C` (stereo not given) here?
Answer: The Potency was inconclusive [inhibitor, single point].

Question: Which Potency does the source give for `COc1ccc(OC)c(-c2csc(NC(=O)Cc3ccc(F)cc3)n2)c1` here?
Answer: Its Potency is inconclusive [inhibitor, single point].

Question: For `O=C(O)CC/C=C\CC[C@H]1[C@@H](N2CCCCC2)[C@@H](O)C[C@@H]1OCc1ccc(-c2ccccc2)cc1`, which “activity change, negative = growth inhibition” value is on record?
Answer: Its value is inactive: -2.01%.

Question: For `CCc1noc(C)c1C(=O)Nc1cccc(S(=O)(=O)N(C)c2ccccc2)c1`, which Potency is on record?
Answer: The Potency was inconclusive [inhibitor, single point].

Question: For `COc1ccc(NC(=O)c2ccc(COCC(F)(F)F)cc2)cc1OC`, which Potency is on record?
Answer: Its Potency is inconclusive [inhibitor, partial curve, poor fit].

Question: With `CCn1c(C)cc(/C=C2/NC(=O)N(c3ccccc3)C2=O)c1C` as the molecule, how does the Potency read?
Answer: The Potency was inconclusive [inhibitor, single point].

Question: With `COc1ccc2nc(NC(=O)CSCc3c(C)noc3C)sc2c1` as the molecule, how does the Potency read?
Answer: The Potency was inconclusive [inhibitor, single point].

Question: For `Cc1nc(-c2coc3cc(O)c(C)cc3c2=O)cs1`, which Potency is on record?
Answer: The Potency was inconclusive [inhibitor, single point].

Question: With `CCCC(NC(C)C(=O)N1C(C(=O)O)CC2CCCCC21)C(=O)OCC` (stereo not given) as the molecule, how does the “activity change, negative = growth inhibition” value read?
Answer: The value was inactive: 1.02%.

Question: For `O=C(O)/C=C/c1ccc(O)cc1`, which “activity change, negative = growth inhibition” value is on record?
Answer: The value was inactive: 23.5%.

Question: For `Cc1ccc(CC(=O)NCc2ccc(F)cc2)cc1`, which Potency is on record?
Answer: The Potency was active: 4.61 µM.

Question: Which “activity change, negative = growth inhibition” value does the source give for `CN1C(=O)[C@H]2[C@@H](C3CC3)N3C(=O)CN(Cc4ccccc4)C(=O)[C@@]3(C)[C@H]2C1=O` here?
Answer: The value was inactive: 2.76%.

Question: For `O=c1c2cnn(-c3ccccc3)c2nc(-c2cccs2)n1-c1ccc(Cl)cc1`, which Potency is on record?
Answer: Its Potency is active: 0.58 µM.

Question: With `CCOC(=O)c1c(NC(NC(C)=O)C(Cl)(Cl)Cl)sc(C(C)=O)c1C` (stereo not given) as the molecule, how does the Potency read?
Answer: Its Potency is inconclusive [inhibitor, single point].
